# Source: the supplement of paper PMC11417369
# ± gives the standard deviation of the averaged measurements. The list shows a part of the results.
# Tested on: PfAP2-I AP2 domain 3 (GST-tagged)
# Experiment: gcPBM binding intensity (ln(normalized median fluorescence intensity)); higher = stronger DNA binding
# Procedure, shortened: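 Binding intensity is the highest Masliner-normalised natural-log median intensity over replicate spots in either probe orientation. To obtain it, GST-tagged P. falciparum DNA-binding domains made in E. coli were incubated for 1 h on an Agilent 4 × 180k array of primer-extended double-stranded 36-bp intergenic genomic probes plus negative controls. Detection used Alexa488 anti-GST antibody with scanning at 488 nm.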
row,Sequence,gcPBM binding intensity (ln)
1,ATACATATATATATATGTACATATGCACATATATAC [XGTACX_site7209],8.45 ± 0.39
2,TTCTATATAATTCAAACATGCACAGGAAATATTATA [TGCATGCA_site290],9.19 ± 0.49
3,AACAATGTTTTCTTGTGTACACATCATTAAAGAAAA [XGTACX_site4726],8.36 ± 0.071
4,ATAATATATATATATACGCACACTTATGTACGGATT [CACACA_site2120],8.35 ± 0.26
5,AAGAAAAAAGGGGACAAGGCATATCTATATATACAT [TGCATGCA_negctrl_site172],7.83 ± 0.67
6,TATGTAACACATACTTGTACATATATAATTTTTTTA [XGTACX_site6251],7.33 ± 0.28
7,ATTTATTAACCATATACACACATATATTTGTATTTA [CACACA_site6744],7.87 ± 0.59
8,ATAGTATCTGGTAGCTGTACGAGTCGTAGAGTGCAG [XGTACX_site2020],8.3 ± 0.53
9,TTCCCTAATATTTGTTGTACTTGTTATATTTTTTTT [XGTACX_site5994],8.17 ± 0.57
10,TATATTTGTAAGAAGAGTACTAAAAAAAGAATAAAG [XGTACX_site8704],8.19 ± 0.67
11,ATATATATATATATATGTACGTACTCAGTTATGCCT [XGTACX_site453],9.29 ± 0.32
12,TTTATTTATTATTGTTGTACACTTTTTATAAAAAAA [XGTACX_site5114],8.29 ± 0.39
13,ATGTATATAATATTATGTACATATATGAAATATTTT [XGTACX_site8168],7.66 ± 0.38
14,ATAAGAAAAGGACACACACACAAAAAAAAAAAAAAA [CACACA_site7351],8.1 ± 0.38
15,TGTTCTTATTTTATAAGCATATAATTAATCATAATG [CACACA_negctrl_site1493],7.44 ± 0.47
16,TAGTTTTTTATAAAATTATTTATATAAAGGTAAAAA [CACACA_negctrl_site490],7.87 ± 0.52
17,AATATATTATAATATACACACATATATGCTCTTTAA [CACACA_site4131],7.94 ± 0.58
18,ATATATTATATATATTTTAAGTAATTTGCAAAAAAT [GTGCAC_negctrl_site361],7.81 ± 0.4
19,ATTTAAAAGAAATAATGTACGAATCATATTTGATAT [XGTACX_site1785],7.71 ± 0.54

row,Sequence,gcPBM binding intensity (ln)
1,GGAATACAGGAAAAAAGTACAGAAAATGGAATATTA [XGTACX_site5053],7.88 ± 0.61
2,TTTAATTTGTTATACACACACAAAAAAAGTTATAAA [CACACA_site7779],7.79 ± 0.33
3,TCTTTCTTATATTTATATAATTATATTTATTTTATA [GTGCAC_negctrl_site300],7.84 ± 0.66
4,ATATAATGTTATAGAAGTACATGAAATACTTATTTA [XGTACX_site8850],7.45 ± 0.28
5,AAAATAAAATAACGTTGTACAACATCATTTCTATAT [XGTACX_site5080],7.72 ± 0.42
6,AACAATATATTGAATAGTACATATATATAAACATAT [XGTACX_site2811],7.62 ± 0.45
7,AACATTTATAAATATTGTACATATAGATTTATATAT [XGTACX_site2662],7.67 ± 0.44
8,TGTTTAAAGGAAAAGGAGTAGTCTATTATATTATCT [CACACA_negctrl_site858],7.74 ± 0.48
9,GTATCTCATTATTCGTGTACTAAACACATAAAAATA [XGTACX_site2262],8.51 ± 0.3
10,ATCTATATCTATAATACACACTAAAGTAACAGAATA [CACACA_site7370],7.95 ± 0.42
11,GATTTACAACACGAACGTACAGAACAAAAAGGAAAA [XGTACX_site6501],8.15 ± 0.58
12,AATGTAAAAGTAAACACACACATATATATATACATA [CACACA_site2484],7.68 ± 0.54
13,TATAAAAATAAAAAAAGTACACATAAAAATATATAT [XGTACX_site5189],8.14 ± 0.3
14,CATATATACACATACACACACACACGGACACGCACA [CACACA_site6910],8.37 ± 0.35
15,TATTGTATTTAATAAACACACAATATTAAAAATATA [CACACA_site4725],7.43 ± 0.33
16,ATACACATATATGTGTGTACTCACCTTTTAATATGA [XGTACX_site4349],7.87 ± 0.27
17,TATATATTCAAATGTGCATGTAAAAAAAAAAAAAAG [TGCATGCA_site126],8.58 ± 0.4
18,ATAAAAAACTCAGAGCGTACATAATTTTTTCTATTT [XGTACX_site2803],7.64 ± 0.54
19,TAACCATACATACATACACACACACCCACATATATA [CACACA_site8951],8.11 ± 0.18

row,Sequence,gcPBM binding intensity (ln)
1,GGCATATATATATGCACACATACATAAATACATGTG [CACACA_site5999],9.54 ± 0.25
2,AGACATTAATGAAGGTGTACATATATTTGACAGAAT [XGTACX_site655],8.34 ± 0.68
3,TCCCTAGTATACCTTAGTACATATATTATTTTGCAC [XGTACX_site2174],10.4 ± 0.66
4,CAGGAGAGTAAAAGAGTGCGAATTATTATTTTGGAG,8.63 ± 0.22
5,TCATTCATATGTTACACACACACACGCACATAAAAA [CACACA_site7514],8.59 ± 0.22
6,TATATAATATAATTGACATGCAACCATTTTCGTGAA [TGCATGCA_site458],7.64 ± 0.59
7,AAGTTGGAAAGGTTATGTACTTATTTTTTAAAATAA [XGTACX_site204],7.71 ± 0.36
8,TATTTTTATTTAGGACGTACAAAAATAAATCATATT [XGTACX_site1448],8.01 ± 0.35
9,TTAAAAATATATATAACACACACATAATATATATAT [CACACA_site8811],8.93 ± 0.33
10,TTTTTTTTTCCCGTAAATATTGAGACAACCATAATG [CACACA_negctrl_site41],7.86 ± 0.61
11,TTAGAAACATTGAAAGCATGCAATATTACTTTATAC [TGCATGCA_site522],7.75 ± 0.6
12,TCCTTATATTTGCACACACACACAAGAAAATGAAAA [CACACA_site6613],10.3 ± 0.54
13,TATAAATATTACGGTAGTACTATACATATATATAAT [XGTACX_site7442],7.78 ± 0.53
14,CATATAAAAAGACACACACACACATATATATATATA [CACACA_site940],9.66 ± 0.5
15,ATATATTTTCAAAAAAGTAAATCAAAATAAATATAT [TGCATGCA_negctrl_site319],7.78 ± 0.69
16,TCCAAATACAACTACACACAAACAAAAATTATATAT [CACACA_site881],7.84 ± 0.49
17,ATGGTTTAGTTATATACACACTCGAAAATAACGACA [CACACA_site7520],7.88 ± 0.49
18,TATAAAAATATATTTACACACTATATATATCGAAAG [CACACA_site1700],7.71 ± 0.38
